According to the supplement of paper PMC11383711:
Some of the results follow. Binding of human antibodies (heavy:light variable regions, tested as scFv in one mRNA-display pool) to influenza hemagglutinin, with or without the stem antibody CR9114 bound first. Score = (mean enrichment − median) / interquartile range of that screen; higher = more enriched, 0 = typical non-binder. Active = above the paper's cut-off per screen: stems 28; unblocked H1 Solomon Islands 5, H1 Michigan 3, H3 5, H5 19, H7 2.85, both B 5; blocked 9, 7, H5 10, H7 10, B Phuket 10, B Lee 11.5. Scores are scaled within each screen and are no affinities; replicates correlate at about 0.6 to 0.9, and antibodies rare in the pool are noisier.

Tests used:
Experiment in all cases: mRNA display binding score; higher = more enriched on the antigen
[1] = target: Influenza A H1N1 A/Michigan/45/2015 hemagglutinin ectodomain
Experimental: (§1)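 A pool of natively paired antibodies, displayed as scFv on mRNA, was selected once on antigen-coated beads and sequenced before and after; two replicates.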

[2] = target: Influenza A H1N1 A/Solomon Islands/3/2006 hemagglutinin ectodomain
Experimental: as §1

[3] = target: Influenza A H3N2 A/Singapore/INFIMH-16-0019/2016 hemagglutinin ectodomain; details: antigen blocked with: nothing
Experimental: as §1

[4] = target: Influenza A H5N1 A/Qinghai/1A/2005 hemagglutinin ectodomain
Experimental: as §1

[5] = target: Influenza A H7N9 A/Shanghai/2/2013 hemagglutinin ectodomain
Experimental: as §1

[6] = target: Influenza B/Lee/1940 hemagglutinin ectodomain
Experimental: as §1

[7] = target: Influenza B/Phuket/3073/2013 hemagglutinin ectodomain
Experimental: as §1

[8] = antigen blocked with: 2 µM CR9114 IgG

Measured: mRNA display binding score

B1: K77-1E06 (protein)
chain 1: EVQVVESGGRLVRPGGSLRLSCAASGFILSNFWMTWVRQAPGKGLEFVANIKQDGSLKYYVDSVKGRFTISRDNAMNSVYLQMNSVRAEDSAVYYCARDWFGRELGAMDIWGQGTTVTVSS
chain 2: DIVMTQSPDSLAVSLGERATINCKSSQTLLSRSNNKNYLAWYQHRPGQPPKLLIYWASTRASGVPDRFSGSGSGTDFTLTITSLQAEDVAVYFCQQYYGSPLTFGGGTRVQIK
inactive: [1]; [8] 0.0927 | [1]; antigen blocked with: nothing -0.293 | [2]; [8] -0.536 | [2]; antigen blocked with: nothing -0.113 | [3] 2.22 | [4]; [8] -0.568 | [4]; antigen blocked with: nothing -0.179 | [5]; [8] 0.605 | [5]; antigen blocked with: nothing -0.317 | [6]; [8] -0.315 | [6]; antigen blocked with: nothing -0.153 | [7]; [8] 0.49 | [7]; antigen blocked with: nothing -0.0837

B2: 16.ND.95 (protein)
chain 1: EVQLVESGGGMVQPGRSLRLSCAASGFTFGNYAMHWVRQAPGKGPEWVAVISYDGSQKYYTESVKGRFTISRDSSRNMVFLQMNSLRPDDTALYYCVRDRAASLDYWGQGTLVTVPS
chain 2: DIQMTQSPVSPSGSVGDRVTITRRASQSIARVVNWYQQKPGRAPKLLIFYASSLESGGPSRFSGRGFGTDFTITISGLQPEDFATYYCQQRYSAPYTFGQGTNLEIK
inactive: [1]; [8] -0.113 | [1]; antigen blocked with: nothing 0.702 | [2]; [8] 0.139 | [2]; antigen blocked with: nothing -0.089 | [3] 3.03 | [4]; [8] 0.486 | [4]; antigen blocked with: nothing 0.858 | [5]; [8] 0.752 | [5]; antigen blocked with: nothing 0.786 | [6]; [8] -0.0727 | [6]; antigen blocked with: nothing 0.141 | [7]; [8] 0.123 | [7]; antigen blocked with: nothing 0.391

B3: antibody 1A03 (protein)
chain 1: VQLLESGGGLVNPGRSLRLSCTASGFTFGDYAVSWFRQAPGKGLEWVGFIGSKKYGDTIEYAASVRGRFTISRDDFQSTAYLQMNSLRTEDTGVYFCSRDRQLAEHSMDVWGQGTTVTVSS
chain 2: DIQMTQSPSSLSASVGDRVTIPCRANQSISTHINWYQQKPGKAPKLVIYGASNLETGVPSRFSGGGSGTDFTLTISSLQPEDIATFYCQQYDTFPITFGQGTRLEIK
inactive: [1]; [8] -0.575 | [1]; antigen blocked with: nothing -0.231 | [2]; [8] -0.644 | [2]; antigen blocked with: nothing -0.261 | [3] -0.551 | [4]; [8] -0.714 | [4]; antigen blocked with: nothing -0.47 | [5]; [8] -0.712 | [5]; antigen blocked with: nothing -0.65 | [6]; [8] -0.181 | [6]; antigen blocked with: nothing -0.365 | [7]; [8] -0.576 | [7]; antigen blocked with: nothing -0.399

B4: R95-2E11 (protein)
chain 1: EVQLVESGGGLVQPGRSLRLSCAASGFTFDDYAMHWVRQAPGKGLEWVSGISWNSGHLGYADSVKGRFTISRDNVKNSLYLEMNSLGPEDTALYYCAKDIVGDYGSGSYYDYWGQGTLVTVSS
chain 2: SYELTQPPSVSVAPGQTARITCGGNNIGSKSVHWYQQKPGQAPVLVVYDDSDRPSGIPERFSGSNSGNTATLTISRVEAGDEADYYCQVWDGSSDHRYVFGTGTKVTVL
inactive: [1]; [8] -0.281 | [1]; antigen blocked with: nothing -0.732 | [2]; [8] -0.59 | [2]; antigen blocked with: nothing -0.55 | [3] -0.518 | [4]; [8] -0.791 | [4]; antigen blocked with: nothing -0.519 | [5]; [8] -0.651 | [5]; antigen blocked with: nothing -0.818 | [6]; [8] -0.394 | [6]; antigen blocked with: nothing -0.413 | [7]; [8] -0.565 | [7]; antigen blocked with: nothing -0.468

B5: 009-10-2G06 (protein)
chain 1: EVQLVESGGGFVRPGGSLRLSCVGSGFNFDDSAMHWVRQGPGKGLEWVAGINWKSNDIAYVESVKGRFTISRDNAKRTLFLQMNSLRPDDTALYFCAKDRAGYFYAMAVWGQGATVTVSS
chain 2: SYELTQPPSMSVAPGQTAKITCGGDHIGIRSVHWYLRRPGRAPVLVLYDLNDRPLGIPERFSGSNSGHTATLTISGVEAGDEGDYYCQVWDGSGDNRGIFGGGTKLTVL
inactive: [1]; [8] -0.263 | [1]; antigen blocked with: nothing -0.351 | [2]; [8] -0.466 | [2]; antigen blocked with: nothing -0.273 | [3] -0.198 | [4]; [8] -0.554 | [4]; antigen blocked with: nothing -0.395 | [5]; [8] -0.0286 | [5]; antigen blocked with: nothing -0.264 | [6]; [8] -0.0229 | [6]; antigen blocked with: nothing -0.063 | [7]; [8] -0.315 | [7]; antigen blocked with: nothing -0.258

B6: 051-09-5B06 (protein)
chain 1: EVQLVESGGGLVKPGGSLRLSCAASGFPISIGWTTWVRQAPGKGLEWVGLMKSDNGGGATLYAAPMKGRFSISRDDSKNTVYLQMDRLETEDTGIYYCSSTADRDYYDTAGFLDFWGPGTLVTVSS
chain 2: DIVMTQSPLSLTVTPGESASISCRSSQNVQHSNGYNYLHWYLQKPGQSPRLLIYLGSNRASGVPDRFSGSGSGTDFTLKISRVEADDVGVYYCMQALQTRTFGGGTKVEIK
active: [2]; [8] 102 | [2]; antigen blocked with: nothing 178
inactive: [1]; [8] 1.34 | [1]; antigen blocked with: nothing 0.00336 | [3] 0.452 | [4]; [8] 0.0679 | [4]; antigen blocked with: nothing 1.16 | [5]; [8] -0.545 | [5]; antigen blocked with: nothing -0.596 | [6]; [8] -0.649 | [6]; antigen blocked with: nothing 0.288 | [7]; [8] 0.358 | [7]; antigen blocked with: nothing 0.768

B7: antibody 1D02 (protein)
chain 1: EVQLVESGGGLEQPGRSLRLSCEASGFTFDEYAMHWVRQAPGKGLEWVSGISWSSGVIGYADSVRGRFTISRDNAKNSLYLQMNSLTGEDTALYYCAKDSVAETAIRGYYFDYWGQGTLVTVSS
chain 2: DIQMTQSPSTLSASVGDRVTITCRASQYISRWLAWYQQKPGKAPNLLIYDASSLETGVPSRFSGSGSGTEFTLTINSLQPDDFATYYCQQYHSLSALTFGGGTKVEIK
inactive: [1]; [8] 0.955 | [1]; antigen blocked with: nothing 0.454 | [2]; [8] 1.87 | [2]; antigen blocked with: nothing -0.311 | [3] 0.783 | [4]; [8] -0.27 | [4]; antigen blocked with: nothing 1.24 | [5]; [8] 1.33 | [5]; antigen blocked with: nothing -0.0606 | [7]; [8] 1.19 | [7]; antigen blocked with: nothing 0.294
active: [6]; [8] 92.9 | [6]; antigen blocked with: nothing 258

B8: 240-14-IgG-1A06 (protein)
chain 1: QVTLKESGPVLVKPTETLTLTCTVSGFSLSNIIMGVSWIRQPPGRALEWLAHITSKDEKSYSTSLKKRLTISKDTSKSQVVLIMANMDPADTATYYCTRIRWDCGGDCYWTHDFWGQGTLVTVSS
chain 2: SYELTQPPSVSVSPGQTARITCSGGRLGDTFASWYQQRPGQAPVLVIYRDTMRPSGIPERFSGSNSGHAATLTISGTQTMDEADYYCQVWDTSASAHVFGTGTTVTVL
inactive: [1]; [8] 0.319 | [1]; antigen blocked with: nothing -0.259 | [2]; [8] -0.218 | [2]; antigen blocked with: nothing -0.565 | [3] -0.431 | [4]; [8] -0.861 | [4]; antigen blocked with: nothing -0.343 | [5]; [8] -0.0567 | [5]; antigen blocked with: nothing -0.538 | [6]; [8] -0.252 | [6]; antigen blocked with: nothing -0.154 | [7]; [8] -0.468 | [7]; antigen blocked with: nothing -0.173

B9: R95-2B02 (protein)
chain 1: QVQLVQSGAEVKKPGASVKVSCKASGYTFTGYYLHWVRQAPGQGLEWMGWINPDSGGTSFAQKFQGWATMTSDTSISTAYMELSGLKSDDTAVYYCARIQRAGSGFDLWGQGTMVTVSS
chain 2: QSALTQPASVSGSPGQSITISCSGTSSDVGSYNLVSWYQQHPGKTPKLMIYDVSKRPSGVSNRFSGSKSGSTASLTVSGLQAEDEADYYCYSYAGSRAWVFGGGTKLTV
inactive: [1]; [8] -0.461 | [1]; antigen blocked with: nothing -0.393 | [2]; [8] -0.341 | [2]; antigen blocked with: nothing -0.534 | [3] -0.524 | [4]; [8] -0.711 | [4]; antigen blocked with: nothing -0.58 | [5]; [8] 0.0642 | [5]; antigen blocked with: nothing -0.691 | [6]; [8] -0.261 | [6]; antigen blocked with: nothing 0.215 | [7]; [8] -0.498 | [7]; antigen blocked with: nothing -0.341

B10: R95-2C07 (protein)
chain 1: EVQLVESGGGLVQPGGSLRLSCEVSGFSFSSYWMSWVRQAPGKGLEWVANIKQDGSEKNYVDSVKGRLTISRDNAKNSLYLQMDSLRAEDTAVYYCARDGPHDFWSGYPFDYWGQGTLVTVSS
chain 2: DIQMTQSPSSLSASVGDRVTITCRASQGIRDDLGWYQQKPGKAPKRLIYAASSLQSGVPSRFSGSGSGTEFTLTISSLQPEDFATYYCLQHNSYPRTFGQGTKVEIK
inactive: [1]; [8] -0.501 | [1]; antigen blocked with: nothing -0.361 | [2]; [8] 0.00117 | [2]; antigen blocked with: nothing -0.232 | [3] -0.128 | [4]; [8] -0.411 | [4]; antigen blocked with: nothing -0.346 | [5]; [8] 0.239 | [5]; antigen blocked with: nothing -0.578 | [6]; [8] 1.01 | [6]; antigen blocked with: nothing -0.307 | [7]; [8] 0.173 | [7]; antigen blocked with: nothing -0.345

B11: 01.y.01 (protein)
chain 1: EVQLVESGGGLVQPGGSLRLSCAASGFTFSSYWMTWVRQAPGKGLEWVANIKQDGSSKYYVDSLKGRFTISRDNAKNSLYLQMNSLRDEDTAVYYCARDRTPGYSYGYVDRVVWRNPYYGMDVWGQGTTVAVSS
chain 2: DIQMTQRPVSLSASVGDTVTITCRASHSIATYLNWYQQKPGKAPNLLISTASDLQSGVPSRFSGSGSGTDFTLTIDSLQPEDFATYYCQQSYSIPLTFGGGTRVEIK
inactive: [1]; [8] -0.15 | [1]; antigen blocked with: nothing -0.585 | [2]; [8] -0.85 | [2]; antigen blocked with: nothing 0.291 | [3] 0.962 | [4]; [8] -0.435 | [4]; antigen blocked with: nothing -0.271 | [5]; [8] -0.429 | [5]; antigen blocked with: nothing -0.332 | [6]; [8] 0.113 | [6]; antigen blocked with: nothing -0.185 | [7]; [8] -0.391 | [7]; antigen blocked with: nothing -0.214

B12: W85-1F04 (protein)
chain 1: QVQLVQSGAEVKKPGASVKVSCKASGYTFTTYDINWVRQATGQGLEWMGWMNPNSGNTGSAQNFQGRVTMTRNTSINTAYMELSSLRSDDTAVYYCVRGLGYCTSTSCYGSWFDPWGQGTLVTVSS
chain 2: EIVMTQSPATLSVSPGERATLSCRASQNISSNLAWYQQKAGQVPRLLIYGASTRATGCPARFSGSGSGTEFTLTISSLQSEDFAVYYCQQYDNWTPITFGQGTRLEIK
inactive: [1]; [8] 0.77 | [1]; antigen blocked with: nothing 1.01 | [2]; [8] 0.296 | [2]; antigen blocked with: nothing 0.39 | [3] 0.178 | [4]; [8] 0.938 | [4]; antigen blocked with: nothing 0.326 | [5]; [8] 0.322 | [5]; antigen blocked with: nothing 1.27 | [6]; [8] 0.158 | [6]; antigen blocked with: nothing 0.35 | [7]; [8] 0.472 | [7]; antigen blocked with: nothing 0.102
